The values that follow come from PMC10482964.

Protein sequences, listed by entry. Tags and fused reporters are not part of them. Lines headed by an entry give the natural chain unless they say otherwise; changes in a name come on top.
UniProt Q8R5A0: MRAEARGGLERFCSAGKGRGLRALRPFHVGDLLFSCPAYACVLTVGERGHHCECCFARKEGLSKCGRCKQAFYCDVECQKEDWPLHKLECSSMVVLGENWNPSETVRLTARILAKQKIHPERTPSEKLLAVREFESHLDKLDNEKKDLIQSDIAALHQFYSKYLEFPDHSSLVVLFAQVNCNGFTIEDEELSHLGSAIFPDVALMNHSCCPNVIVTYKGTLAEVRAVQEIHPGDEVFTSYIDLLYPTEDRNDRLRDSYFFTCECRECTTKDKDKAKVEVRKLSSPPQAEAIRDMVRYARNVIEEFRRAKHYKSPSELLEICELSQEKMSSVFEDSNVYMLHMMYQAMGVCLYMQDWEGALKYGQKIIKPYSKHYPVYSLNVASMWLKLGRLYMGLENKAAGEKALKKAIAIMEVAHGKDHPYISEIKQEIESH
UniProt P62137: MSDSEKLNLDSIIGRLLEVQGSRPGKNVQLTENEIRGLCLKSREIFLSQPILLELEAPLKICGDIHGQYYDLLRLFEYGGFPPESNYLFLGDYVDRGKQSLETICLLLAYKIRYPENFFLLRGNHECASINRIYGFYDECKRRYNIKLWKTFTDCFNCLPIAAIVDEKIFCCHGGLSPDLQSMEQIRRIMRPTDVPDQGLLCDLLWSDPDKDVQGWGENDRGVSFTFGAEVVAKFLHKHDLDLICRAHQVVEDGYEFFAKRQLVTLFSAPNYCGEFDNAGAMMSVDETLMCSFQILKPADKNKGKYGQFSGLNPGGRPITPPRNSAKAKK

These are yes or no findings as the source states them, for the method shown. For part of these data: In cells and extracts the contact can be indirect. Some binding calls cover weakened binding; strength is not graded here. For part of these data: Tags and fused reporters may be left off the sequences shown.

Test [1] has as its target T1, IRF3, tagged, wild type (exogenous, HEK293T) (mouse) (UniProt P70671).
T1 sequence: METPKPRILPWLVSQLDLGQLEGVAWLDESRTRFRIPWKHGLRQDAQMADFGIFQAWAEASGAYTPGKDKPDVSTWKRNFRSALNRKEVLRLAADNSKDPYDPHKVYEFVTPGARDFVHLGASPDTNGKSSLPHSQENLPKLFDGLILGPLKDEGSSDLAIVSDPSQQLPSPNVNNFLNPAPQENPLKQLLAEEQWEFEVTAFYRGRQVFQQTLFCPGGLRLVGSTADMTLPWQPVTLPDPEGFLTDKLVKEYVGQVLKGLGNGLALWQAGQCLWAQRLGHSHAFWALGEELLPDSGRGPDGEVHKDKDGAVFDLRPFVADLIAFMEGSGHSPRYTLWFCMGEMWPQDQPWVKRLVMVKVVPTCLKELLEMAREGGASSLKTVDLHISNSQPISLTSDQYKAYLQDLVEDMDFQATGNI
The test is described as follows: co-IP.

The target of test [2] is T2, endogenous IRF3 (peritoneal macrophages) (mouse (endogenous in peritoneal macrophages)) (UniProt P70671).
T2 sequence: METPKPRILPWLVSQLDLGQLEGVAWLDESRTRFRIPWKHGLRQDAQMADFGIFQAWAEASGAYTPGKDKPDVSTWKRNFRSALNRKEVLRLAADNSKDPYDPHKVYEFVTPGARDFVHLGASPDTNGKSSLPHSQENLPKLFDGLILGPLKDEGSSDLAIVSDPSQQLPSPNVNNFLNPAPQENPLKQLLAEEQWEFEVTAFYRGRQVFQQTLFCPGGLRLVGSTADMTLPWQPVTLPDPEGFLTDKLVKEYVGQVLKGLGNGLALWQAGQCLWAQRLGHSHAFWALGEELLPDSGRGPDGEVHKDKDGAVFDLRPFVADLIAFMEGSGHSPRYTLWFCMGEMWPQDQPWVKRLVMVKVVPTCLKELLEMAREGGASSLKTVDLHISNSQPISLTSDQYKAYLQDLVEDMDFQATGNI
The test can be described thus: co-IP.

Test [3] deals with T3, IKK-ε, tagged (exogenous, HEK293T) (UniProt Q9R0T8).
T3 sequence: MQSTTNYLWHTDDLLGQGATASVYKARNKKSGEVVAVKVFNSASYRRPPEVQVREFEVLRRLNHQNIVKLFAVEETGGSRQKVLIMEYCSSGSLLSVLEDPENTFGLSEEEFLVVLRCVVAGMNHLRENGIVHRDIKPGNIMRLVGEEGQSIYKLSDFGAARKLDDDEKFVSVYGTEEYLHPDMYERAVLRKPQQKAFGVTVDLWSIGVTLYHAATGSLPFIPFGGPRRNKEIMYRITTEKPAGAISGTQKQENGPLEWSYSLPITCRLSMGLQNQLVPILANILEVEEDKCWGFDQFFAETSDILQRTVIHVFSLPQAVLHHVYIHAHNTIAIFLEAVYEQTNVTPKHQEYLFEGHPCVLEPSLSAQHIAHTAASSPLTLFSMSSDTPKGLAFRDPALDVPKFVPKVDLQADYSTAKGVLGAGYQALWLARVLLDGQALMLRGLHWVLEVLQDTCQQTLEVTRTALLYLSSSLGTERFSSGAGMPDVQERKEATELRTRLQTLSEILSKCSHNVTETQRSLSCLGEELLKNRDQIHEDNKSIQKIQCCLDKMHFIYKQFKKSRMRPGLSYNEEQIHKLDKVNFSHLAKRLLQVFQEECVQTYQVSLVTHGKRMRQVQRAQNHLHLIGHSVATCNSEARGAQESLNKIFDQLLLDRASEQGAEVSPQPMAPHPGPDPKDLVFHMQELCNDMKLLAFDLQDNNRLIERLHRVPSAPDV
The test can be described thus: co-IP.

The target of test [4] is T4, IRF3 with deletion of DBD (1-140aa) (mouse) (UniProt P70671).
T4 sequence: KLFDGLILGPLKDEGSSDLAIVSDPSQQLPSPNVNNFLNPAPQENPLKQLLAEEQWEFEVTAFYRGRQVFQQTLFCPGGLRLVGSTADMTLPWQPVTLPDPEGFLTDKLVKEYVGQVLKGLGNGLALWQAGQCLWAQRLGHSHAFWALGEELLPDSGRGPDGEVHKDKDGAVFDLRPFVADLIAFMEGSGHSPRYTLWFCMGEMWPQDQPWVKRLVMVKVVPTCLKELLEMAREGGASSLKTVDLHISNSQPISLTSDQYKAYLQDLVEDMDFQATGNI
The test can be described thus: co-IP.

The target in test [5] is Flag-tagged SMYD2 (RAW 264.7) (mouse) (UniProt Q8R5A0). The test is described as follows: co-IP.
Test [6] addresses endogenous SMYD2 (peritoneal macrophages) (mouse (endogenous in peritoneal macrophages)) (UniProt Q8R5A0). The test is described as follows: co-IP.
Another test has as its target SMYD2Δ1-195aa (mouse) (UniProt Q8R5A0). The test is described as follows: co-IP.
The target of the next test is SMYD2Δ1-251aa (mouse) (UniProt Q8R5A0). The test can be described thus: co-IP.
Test [7] has as its target T5, endogenous IRF3 (peritoneal macrophages) (mouse (endogenous in peritoneal macrophages)), P70671.
T5 chain: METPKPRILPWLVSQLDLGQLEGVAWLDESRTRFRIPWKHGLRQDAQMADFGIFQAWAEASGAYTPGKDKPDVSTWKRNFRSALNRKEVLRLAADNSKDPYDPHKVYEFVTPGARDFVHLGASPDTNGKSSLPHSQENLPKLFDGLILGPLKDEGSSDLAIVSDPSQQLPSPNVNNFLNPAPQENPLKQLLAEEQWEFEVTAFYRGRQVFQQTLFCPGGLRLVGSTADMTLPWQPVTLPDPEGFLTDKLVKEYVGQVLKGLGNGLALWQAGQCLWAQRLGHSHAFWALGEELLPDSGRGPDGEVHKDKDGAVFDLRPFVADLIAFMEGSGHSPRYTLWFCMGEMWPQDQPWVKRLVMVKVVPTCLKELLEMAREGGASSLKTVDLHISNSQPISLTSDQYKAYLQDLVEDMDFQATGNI
The test can be described thus: native gel or EMSA. The following applies: remark: other sources report otherwise.

In the case of “SMYD2Δ1-251aa (from UniProt Q8R5A0 252-433) (domain or fragment)”, the binding result in [1] is “no binding”. For “endogenous SMYD2 (peritoneal macrophages) (from UniProt Q8R5A0 1-433)”, in test [2], the binding entry is listed as “binds”.

In the case of “SMYD2, tagged, wild type (exogenous, HEK293T) (from UniProt Q8R5A0 1-433)”, the figures for the binding entry in test [3], in [1] and in test [4] were “no binding”, “binds” and “binds”, respectively. In the case of “endogenous PP1α (RAW 264.7) (from UniProt P62137 1-330) (enzyme)”, the binding result in test [5] is “binds”. “endogenous PP1α (peritoneal macrophages) (from UniProt P62137 1-330) (enzyme)”: the binding result in [2] and in test [6] was “binds” throughout.

For the molecule “SMYD2Δ1-195aa (from UniProt Q8R5A0 196-433) (domain or fragment)”, in test [1], the binding result is “binds”. In the case of “tagged PP1α (exogenous) (from UniProt P62137 1-330) (enzyme)”, the binding result with SMYD2Δ1-195aa (mouse) was “binds”; with SMYD2Δ1-251aa (mouse), “no binding”.

B1: endogenous IRF3 (peritoneal macrophages), P70671 1-419 (protein)
chain: METPKPRILPWLVSQLDLGQLEGVAWLDESRTRFRIPWKHGLRQDAQMADFGIFQAWAEASGAYTPGKDKPDVSTWKRNFRSALNRKEVLRLAADNSKDPYDPHKVYEFVTPGARDFVHLGASPDTNGKSSLPHSQENLPKLFDGLILGPLKDEGSSDLAIVSDPSQQLPSPNVNNFLNPAPQENPLKQLLAEEQWEFEVTAFYRGRQVFQQTLFCPGGLRLVGSTADMTLPWQPVTLPDPEGFLTDKLVKEYVGQVLKGLGNGLALWQAGQCLWAQRLGHSHAFWALGEELLPDSGRGPDGEVHKDKDGAVFDLRPFVADLIAFMEGSGHSPRYTLWFCMGEMWPQDQPWVKRLVMVKVVPTCLKELLEMAREGGASSLKTVDLHISNSQPISLTSDQYKAYLQDLVEDMDFQATGNI
With B1, the binding entry in test [7] was “binds”.
